{
  "source": "paper PMC4336329",
  "about": "(PLoS ONE, 2015)",
  "note": "The campaign covered roughly 310,000 compounds. About 14,000 (4.5%) showed an effect of 50% or more. Effects have a minus sign here. The list shows a part of the results.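 Note: peak tail current of the secondary pulse compared with the same well before compound.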",
  "data": [
    {"molecular_target": "human ether-à-go-go-related gene (hERG) potassium channel (human, UniProt Q12809)", "sequence (Q12809 whole entry, looked up)": "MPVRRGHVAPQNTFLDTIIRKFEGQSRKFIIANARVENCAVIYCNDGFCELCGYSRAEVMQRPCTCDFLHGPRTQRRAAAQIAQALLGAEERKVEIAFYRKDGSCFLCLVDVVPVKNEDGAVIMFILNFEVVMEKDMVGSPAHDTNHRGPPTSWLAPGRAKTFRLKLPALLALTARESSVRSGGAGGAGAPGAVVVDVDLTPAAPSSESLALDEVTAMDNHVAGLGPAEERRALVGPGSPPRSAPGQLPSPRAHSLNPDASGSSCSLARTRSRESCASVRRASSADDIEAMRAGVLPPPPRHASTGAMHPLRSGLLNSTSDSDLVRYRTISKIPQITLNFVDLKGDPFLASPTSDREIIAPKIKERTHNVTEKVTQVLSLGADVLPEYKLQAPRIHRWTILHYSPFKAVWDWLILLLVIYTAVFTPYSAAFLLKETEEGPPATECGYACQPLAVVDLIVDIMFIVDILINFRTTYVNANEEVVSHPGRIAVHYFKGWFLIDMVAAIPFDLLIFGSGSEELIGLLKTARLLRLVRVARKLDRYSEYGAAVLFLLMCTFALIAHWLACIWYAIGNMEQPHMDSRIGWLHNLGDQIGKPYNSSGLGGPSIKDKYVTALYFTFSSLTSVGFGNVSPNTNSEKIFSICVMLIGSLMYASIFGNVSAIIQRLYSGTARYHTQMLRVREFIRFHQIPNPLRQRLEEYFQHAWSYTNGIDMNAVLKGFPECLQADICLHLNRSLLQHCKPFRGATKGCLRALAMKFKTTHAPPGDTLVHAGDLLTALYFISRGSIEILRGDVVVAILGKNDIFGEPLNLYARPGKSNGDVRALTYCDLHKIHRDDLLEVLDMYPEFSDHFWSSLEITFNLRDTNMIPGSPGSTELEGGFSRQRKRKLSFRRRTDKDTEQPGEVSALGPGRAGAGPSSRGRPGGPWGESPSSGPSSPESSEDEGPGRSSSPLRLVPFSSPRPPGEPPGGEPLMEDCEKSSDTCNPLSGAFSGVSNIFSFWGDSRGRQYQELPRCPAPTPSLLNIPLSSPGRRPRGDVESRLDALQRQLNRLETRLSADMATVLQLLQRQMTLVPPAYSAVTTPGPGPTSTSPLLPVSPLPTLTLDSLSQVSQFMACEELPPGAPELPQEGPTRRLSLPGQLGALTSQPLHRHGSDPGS", "assay": "primary screen, population patch clamp on CHO cells stably expressing hERG", "units": {"hERG current change (%, negative = inhibition) at 10uM": "%"}, "values": [
      {"smiles": "CCCCn1nc2cc(C(=O)NC3CCCc4ccccc43)ccc2c1OCC", "note": "(centres unmarked)", "hERG current change (%, negative = inhibition) at 10uM": -15.1},
      {"smiles": "CC(=O)N1C(C(=O)O)CSC1c1cccc(C)c1", "note": "(centres unmarked)", "hERG current change (%, negative = inhibition) at 10uM": 23},
      {"smiles": "CCCc1nnc(SCC(=O)NC2CC2)n1CC", "hERG current change (%, negative = inhibition) at 10uM": 15.1},
      {"smiles": "CCOC(=O)C1=C(C)N=c2s/c(=C\\C(=O)OC)c(=O)n2C1c1ccc(OC)cc1", "note": "(centres unmarked)", "hERG current change (%, negative = inhibition) at 10uM": -1.94},
      {"smiles": "CN(C(=O)c1ccc(COc2ccccc2Cl)o1)c1ccccc1", "hERG current change (%, negative = inhibition) at 10uM": -10.8},
      {"smiles": "COc1ccc(NC(=O)CSc2nnc(C3CC3)n2C)cc1", "hERG current change (%, negative = inhibition) at 10uM": 23.7},
      {"smiles": "O=C(Cn1nnc(-c2ccccc2)n1)c1ccccc1", "hERG current change (%, negative = inhibition) at 10uM": 7.22},
      {"smiles": "Nc1ccccc1C(=O)N1CCc2ccccc21", "hERG current change (%, negative = inhibition) at 10uM": 9.65},
      {"smiles": "O=C(O)C1Nc2c(Cl)cc(Cl)c(Cl)c2C2C=CCC12", "note": "(centres unmarked)", "hERG current change (%, negative = inhibition) at 10uM": 17.2},
      {"smiles": "Cc1ccc(OCCOC(=O)CN2C(=O)NC3(CCCC3)C2=O)cc1", "hERG current change (%, negative = inhibition) at 10uM": -2.01},
      {"smiles": "CN(C)c1ccc(/C=C(\\NC(=O)c2ccccc2)C(=O)NCCN2CCOCC2)cc1", "hERG current change (%, negative = inhibition) at 10uM": -19.9},
      {"smiles": "COc1ccc(C(=O)C/C(=C\\C(=O)c2ccc(C)cc2)c2ccccc2)cc1", "hERG current change (%, negative = inhibition) at 10uM": 9.82},
      {"smiles": "CN1CCN(S(=O)(=O)c2ccc(NC(=O)C3CCCCC3)cc2)CC1", "hERG current change (%, negative = inhibition) at 10uM": -11},
      {"smiles": "NC(=O)CC(NC(=O)c1ccc(Br)cc1)c1ccc(N2CCC(Cc3ccccc3)CC2)c([N+](=O)[O-])c1", "note": "(centres unmarked)", "hERG current change (%, negative = inhibition) at 10uM": -12.8},
      {"smiles": "COc1ccc(S(=O)(=O)NCCc2c[nH]c3ccc(Cl)cc23)cc1", "hERG current change (%, negative = inhibition) at 10uM": 14.5},
      {"smiles": "CCC(=O)N1N=C(c2ccc(NS(C)(=O)=O)cc2)CC1c1ccc(C)cc1", "note": "(centres unmarked)", "hERG current change (%, negative = inhibition) at 10uM": -44.7},
      {"smiles": "COc1ccc(NC(=S)NCCc2c(C)[nH]c3ccc(OC)cc23)cc1", "hERG current change (%, negative = inhibition) at 10uM": 10.1},
      {"smiles": "CCOC(=O)c1ccc(NC(=O)c2ccco2)cc1", "hERG current change (%, negative = inhibition) at 10uM": 4.69},
      {"smiles": "Cc1ccc(C(=O)N2CCN(c3ccccc3F)CC2)cc1NC1=NC2CS(=O)(=O)CC2S1", "note": "(centres unmarked)", "hERG current change (%, negative = inhibition) at 10uM": 20},
      {"smiles": "O=C(CSc1nc2ccccc2c(=O)n1CCCN1CCOCC1)Nc1cccc(S(=O)(=O)N2CCCCCC2)c1", "hERG current change (%, negative = inhibition) at 10uM": -72.2},
      {"smiles": "O=C(/C=C/c1ccccc1O)c1ccco1", "hERG current change (%, negative = inhibition) at 10uM": -6.37},
      {"smiles": "Cc1nn(-c2cccc(Cl)c2)nc1C(=O)Nc1cccc(C(=O)NC2CC2)c1", "hERG current change (%, negative = inhibition) at 10uM": -9.59},
      {"smiles": "O=C(C1COc2ccccc2O1)N1CCCC1", "note": "(centres unmarked)", "hERG current change (%, negative = inhibition) at 10uM": 16.8},
      {"smiles": "O=[N+]([O-])/C(Cl)=C1\\NCCN1Cc1ccc(Cl)nc1", "hERG current change (%, negative = inhibition) at 10uM": 16.8},
      {"smiles": "O=C(NCCC(=O)N1CCC2(CC1)NCCc1[nH]cnc12)c1ccc(F)c(F)c1", "hERG current change (%, negative = inhibition) at 10uM": 7.12},
      {"smiles": "CCCn1c(N)c(N(CCOC)C(=O)Cc2ccc(S(=O)(=O)N3CCOCC3)s2)c(=O)[nH]c1=O", "hERG current change (%, negative = inhibition) at 10uM": 16.9},
      {"smiles": "CC[C@@H](CO)NC(=O)[C@@H]1C=C2c3cccc4c3c(cn4C)C[C@H]2N(C)C1.O=C(O)/C=C\\C(=O)O", "hERG current change (%, negative = inhibition) at 10uM": 13.3},
      {"smiles": "O=C(NNc1c2ccccc2nc2ccccc12)c1ccc(O)cc1", "hERG current change (%, negative = inhibition) at 10uM": 8.09},
      {"smiles": "COc1ccc(/C=C/C(=O)NCCc2nc3ccccc3[nH]2)cc1", "hERG current change (%, negative = inhibition) at 10uM": 26.4},
      {"smiles": "Clc1ccc(C2=CSC3=Nc4cccc5cccc(c45)N23)cc1", "hERG current change (%, negative = inhibition) at 10uM": 4.54},
      {"smiles": "COC(=O)/C=C/c1ccc2c(c1)OCO2", "hERG current change (%, negative = inhibition) at 10uM": 13.5},
      {"smiles": "Cc1cc(=O)n2[nH]c(SCc3c(F)cccc3Cl)nc2n1", "hERG current change (%, negative = inhibition) at 10uM": 6.2},
      {"smiles": "CCOC(=O)c1cc(CC)sc1NC(=O)c1ccc(N2CCOCC2)c([N+](=O)[O-])c1", "hERG current change (%, negative = inhibition) at 10uM": 3.76},
      {"smiles": "O=C(c1ccc(C(F)(F)F)cc1)N1CCN(c2ccc(N3CCOCC3)nn2)CC1", "hERG current change (%, negative = inhibition) at 10uM": -67.9},
      {"smiles": "COCCCN(C(=S)NC(=O)c1ccc(C(C)(C)C)cc1)c1c(N)n(Cc2ccccc2)c(=O)[nH]c1=O", "hERG current change (%, negative = inhibition) at 10uM": 8.35},
      {"smiles": "Cc1cccn2c(=O)c3cc(C(=O)NC4CCS(=O)(=O)C4)n(Cc4ccccc4)c3nc12", "note": "(centres unmarked)", "hERG current change (%, negative = inhibition) at 10uM": -4.36},
      {"smiles": "COCCNC(=O)C1CCC(Cn2c(=S)[nH]c3ccccc3c2=O)CC1", "note": "(centres unmarked)", "hERG current change (%, negative = inhibition) at 10uM": 0.963},
      {"smiles": "O=C(O)/C=C/C(=O)Nc1ccc(N2CCOCC2)nc1N1CCOCC1", "hERG current change (%, negative = inhibition) at 10uM": 10.5},
      {"smiles": "Cc1cccc(C)c1NCc1n[nH]c(=S)n1-c1ccccc1", "hERG current change (%, negative = inhibition) at 10uM": 17},
      {"smiles": "CCc1ccc2oc(C(=O)NC3CCS(=O)(=O)C3)cc(=O)c2c1", "note": "(centres unmarked)", "hERG current change (%, negative = inhibition) at 10uM": -4.81},
      {"smiles": "CC[N+](CC)(CC)CC(=O)Nc1ccc(SC(F)F)cc1.[Cl-]", "hERG current change (%, negative = inhibition) at 10uM": -3.41},
      {"smiles": "COc1ccc2nc(C)cc(Nc3ccc(C(=O)O)cc3)c2c1", "hERG current change (%, negative = inhibition) at 10uM": 39.5},
      {"smiles": "COc1ccc(C(=O)C2CCN(C(=O)Nc3ccc(C)cc3)CC2)cc1", "hERG current change (%, negative = inhibition) at 10uM": -9.82},
      {"smiles": "O=C1c2ccc(Oc3ccc([N+](=O)[O-])cc3)cc2C(=O)N1CCO", "hERG current change (%, negative = inhibition) at 10uM": -52.8}
    ]}
  ]
}
